Where “and” joins values, the source holds several entries; their conditions need not be identical. Equal entries are not always repeated. This continues a long series; more values of the same kind are listed elsewhere.
System: transgenic soybean expressing mutated PPO
Test: Soybean segregating T1 individuals, greenhouse spray test (injury 0-9)
Format: in vivo, Glycine max
Conditions: 1 week after treatment

| Compound | injury (0-9 point scale) (SDS-10642 AmtuPPX2L R128A_F420L, Sulfentrazone 700 g ai/ha) | injury (0-9 point scale) (SDS-10652 AmtuPPX2L L397D_F420V, Sulfentrazone 700 g ai/ha) | injury (0-9 point scale) (SDS-10787 AmtuPPX2L R128A_F420L, Sulfentrazone 700 g ai/ha) | injury (0-9 point scale) (SDS-11034 AmtuPPX2L R128A_F420V, Sulfentrazone 700 g ai/ha) | injury (0-9 point scale) (wild type, Sulfentrazone 700 g ai/ha) | injury (0-9 point scale) (SDS-10642 AmtuPPX2L R128A_F420L, Oxyfluorfen 1200 g ai/ha) | injury (0-9 point scale) (SDS-10652 AmtuPPX2L L397D_F420V, Oxyfluorfen 1200 g ai/ha) | injury (0-9 point scale) (SDS-10787 AmtuPPX2L R128A_F420L, Oxyfluorfen 1200 g ai/ha) | injury (0-9 point scale) (SDS-11034 AmtuPPX2L R128A_F420V, Oxyfluorfen 600 g ai/ha) | injury (0-9 point scale) (SDS-11034 AmtuPPX2L R128A_F420V, Oxyfluorfen 1200 g ai/ha) | injury (0-9 point scale) (wild type, Oxyfluorfen 1200 g ai/ha) |
| --- | --- | --- | --- | --- | --- | --- | --- | --- | --- | --- | --- |
| Cc1nn(-c2cc(NS(C)(=O)=O)c(Cl)cc2Cl)c(=O)n1C(F)F [Sulfentrazon, sulfentrazone] | 3 (2×) and 1 and 2 (4×) and 0 | 2 and 3 and 7 (2×) and 4 (3×) and 6 | 3 and 4 (2×) and 6 (3×) and 5 (2×) | 3 (4×) and 2 (2×) and 1 and 4 | 9 | – | – | – | – | – | – |
| CCOc1cc(Oc2ccc(C(F)(F)F)cc2Cl)ccc1[N+](=O)[O-] [Oxyfluorfen] | – | – | – | – | – | 3 (5×) and 4 (2×) and 2 | 5 (3×) and 4 (4×) and 3 | 6 (2×) and 5 (4×) and 8 and 9 | 6 | 5 (3×) and 6 (5×) | 9 (6×) and 8 (2×) |
